# Results taken from the supplement of paper PMC11417369.
# ± gives the standard deviation of the averaged measurements. The list shows a part of the results.
# Tested on: PfAP2-I AP2 domain 3 (GST-tagged)
# Test: gcPBM binding intensity (ln(normalized median fluorescence intensity)); higher = stronger DNA binding
# Procedure, shortened: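 Alexa488 anti-GST antibody, scanned at 488 nm, detected GST-tagged P. falciparum DNA-binding domains that had been expressed in E. coli and incubated for 1 h on an Agilent 4 × 180k array. The array carried primer-extended double-stranded 36-bp intergenic genomic probes and negative controls. Binding intensity is the highest Masliner-normalised natural-log median intensity across replicate spots of either orientation of each probe.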
row,Sequence,gcPBM binding intensity (ln)
1,ACCCACGTAAATTAAGCATGCCTTCCGTTATATTTA [TGCATGCA_site365],8.06 ± 0.48
2,TTTTACTAAATATATACACACATTATGCATATATAT [CACACA_site3287],8.39 ± 0.67
3,TATGTGAATATAATCACACACAATACGGAAAGAGAC [CACACA_site7311],8.84 ± 0.11
4,TTTTTTTTTTATAAGGCACACATGAATATTTATACA [CACACA_site1316],10.3 ± 0.35
5,TATATGTAATATTATACATGCATACATAATATATAT [TGCATGCA_site558],8.13 ± 0.77
6,AAAAGGAATTATAGGAAATAAATATATACAAATATA [TGCATGCA_negctrl_site528],7.38 ± 0.61
7,CGATTTTTTAAGTTTGTGCACTTAAAAACTATAACA,10.9 ± 0.54
8,CCATTTGATAATAATGCACACCACATATATTTATAT [CACACA_site9002],11 ± 0.4
9,TATTTCAAAATAAAATAAAATATATATATATGTATA [XGTACX_negctrl_site416],7.51 ± 0.36
10,TATATGTCAATATCTACACACATATAGGTAATTATT [CACACA_site7475],7.59 ± 0.42
11,TATACTATACAACACATACACACAAAAAAAAAAAAA [CACACA_site537],7.99 ± 0.42
12,TAAATCATGGGATAAGCATGCGCGCACATGTTTGTT [TGCATGCA_site768],7.88 ± 0.9
13,TTTATTTATTAAGAATGTACATGTATTTGTTAAATA [XGTACX_site4465],7.78 ± 0.18
14,GTATTATCTGCTTTTTGTACACATATATTTAAAAAA [XGTACX_site7603],8.62 ± 0.3
15,TTCTGTGTGTATTGGCGTACAATTATTTTGCCTACA [XGTACX_site205],8.25 ± 0.76
16,ACATTCACAAAATTTTGTACACATATATATATATAT [XGTACX_site3518],9.19 ± 0.13
17,ATTATTACTTTTTGAGTGCACATACACACAGACATA,10.5 ± 0.22
18,ATTTTTCATTCTGGACATGTTACCATTATATATATG [CACACA_negctrl_site61],8.15 ± 0.72
19,ATAACTATAATAATCATACACACCAAAGAGAATATT [CACACA_site6970],7.88 ± 0.52
20,TTTTGTTTAAAAAAAAAAAACAAAAAAAAGCAATTA [CACACA_negctrl_site314],7.42 ± 0.59
21,ATTAAAAAAATATACGCACACAAAATGTAATAACAA [CACACA_site2439],8.36 ± 0.45
22,TAATTTGTTATGTATTGTACAAATAATATATGATAT [XGTACX_site1985],7.86 ± 0.35
23,TTACATAATTTATGTACACACGCAAATACTTATAAT [CACACA_site4331],8.1 ± 0.26

row,Sequence,gcPBM binding intensity (ln)
1,TTTATTTATAGGTATACACACTTTAATTAAAAGTTG [CACACA_site7232],7.79 ± 0.61
2,CCTAAAGTGTAAAATTCACACACATATATATATATA [CACACA_site8385],9.22 ± 0.37
3,TTTATTTTTGAAGTTGCACACACAAAAATAAAAAGT [CACACA_site8030],8.52 ± 0.18
4,ATGAAACACTCCATAGTGCAAAATATATATTATATT,10.27 ± 0.057
5,CTATTTTTCCTGAAATGTACAAGAATTTTATTTGAT [XGTACX_site8867],7.57 ± 0.42
6,TGATAATATTATATATGTACATATATGTATATTTTT [XGTACX_site7193],7.57 ± 0.3
7,AATTCAATTGAGCAAAATTCAAATAAATTAAAAAGA [XGTACX_negctrl_site71],7.36 ± 0.72
8,CAAAAATAATTTAGGTGTACAAATTTGACAAAAAAA [XGTACX_site188],8.04 ± 0.57
9,ATATGGGTGAACATATGTACATATATATATTGATAA [XGTACX_site8438],7.87 ± 0.55
10,TTGGTATATTATAAAAGTACACATAATAAAAAATTT [XGTACX_site7985],8.05 ± 0.4
11,TTTTTTTCAATATTTGCACACGATTAAAATATTTAA [CACACA_site5266],9.375 ± 0.035
12,TATTATATATATATATGTACATATTGTATGTTATAT [XGTACX_site5303],7.81 ± 0.45
13,CAAACATATTAATGTACACACACCCACCCACAAACA [CACACA_site2752],8.99 ± 0.73
14,TATGTGAATATTGAGGTGCGGTTGTTAAAATTTATA [GTGCAC_site9915],8.9
15,TTAAATATTTTTTATACACACATTTCTTATTTAACT [CACACA_site229],7.74 ± 0.65
16,TAATTATTATTAATAGTACACACTATGGCATTTCAA [CACACA_site2488],7.74 ± 0.41
17,AGTAGTCTGGAGAAGAGTACACAGTATCTGGTAGCT [XGTACX_site2042],7.64 ± 0.64
18,ACATTAACATTGTTGGTGCAAAATTAATATGTTTTT [GTGCAC_site9673],10.6 ± 0.28
19,GGAAAATGAAAACAAGGTACACATAAGAACAAACAA [XGTACX_site1221],8.17 ± 0.75
20,AATAGGGTCATTCAAAAAAAAAAAAAATAATAATAC [CACACA_negctrl_site644],7.78 ± 0.71
21,AAATTTGCTTTACCAGTGCAAAAAAAAAAAAAAAAA,10.3 ± 0.32
22,TGTTTTTATCCTTATGGTACAGTATAATACTTACAG [XGTACX_site6381],7.88 ± 0.54
